Measured values as given in ChEMBL document CHEMBL1157539, “Thousands of chemical starting points for antimalarial lead identification” (Nature, 2010).
Whole data set: some 13,000 compounds, median “IFI” near 4, cut for the highest 2% near 17. Some of the results follow.

Assay: GSK_TCMDC: Inhibition Frequency Index (IFI). The number of non-kinase HTS assays where a compound showed > 50 % inhibition, expressed as a percentage of the number of such assays in which the compound was tested (-0 is zero)
Assay type: functional

Point of comparison: `CC[C@H](NC(=O)c1ccc(NC(=O)OC(C)(C)C)cc1)C(=O)N[C@@H](CO)C(=O)NCCCCc1ccccc1`, IFI 2.84%. Against it:
- O=S(=O)(c1cc(Cl)sc1Cl)N(CCC(O)(C(F)(F)F)C(F)(F)F)Cc1cccc(O)c1 — higher, 5.8%
- Cc1c(CN2CCCCC2)cccc1OCCCNc1nc(NCCc2ccc(O)cc2)nc(N2CCNCC2)n1 — higher, 7.58%
- O=C(NC1CCCc2ccccc21)[C@@H]1CCCN1C(=O)c1ccc(O)c(-c2cccc([N+](=O)[O-])c2)c1 (stereo not given in full) — lower, 2.1%
- O=C1C[C@@H]([S+]([O-])Cc2nccs2)N1CCOCCCCCCc1ccc(Cl)cc1 (stereo not given in full) — higher, 5.26%
- Nc1c2c(nc3ccc(Oc4ccc(Br)cc4Br)cc13)CCCC2 — higher, 6.21%
- CC1(C)N=C(N)N=C(N)N1OCCCOc1cccc(C(=O)O)c1 — lower, 0.75%
- CC(=O)Nc1nc(C(=O)Nc2ccc(-c3cccc(-c4nc5cc(F)ccc5[nH]4)c3)cc2)cs1 — higher, 6.09%
- Cc1ccc(NC(=O)c2cccc(N3CCN(c4ccncc4)CC3)c2)cc1F — higher, 7.14%
- COc1ccc(-c2cccc(NC(=O)c3cccc(C#N)c3)c2)cc1CN1CCN(C)CC1 — higher, 2.97%
- CN(C)CCCN(C)c1cccc2c1nc(-c1cccnc1)n2CCNCc1ccccc1 — higher, 3.33%
- Cc1noc(-c2ccccc2)c1NC(=O)N1CCN(CCCCCCNC(=O)/C=C/c2ccc(Cl)c(Cl)c2)CC1 — lower, 2.36%
- CC1(C)N=C(N)N=C(N)N1OCc1cccc(C#N)c1 — lower, 2.17%
- FC(F)(F)c1ccc2[nH]c(-c3cccc(-c4ccc(CNCc5cnn(-c6ccccc6)n5)cc4)c3)nc2c1 — lower, 1.64%
- CCCC(CNCc1cccc(C)c1)CNc1cc(=O)c2ccccc2[nH]1 (stereo not given) — higher, 2.9%
- CN(CCc1ccccc1)c1ncc(-c2cccc(CNCCC3CCCN3C)c2)cn1 (stereo not given) — higher, 10%
- CCOC(=O)C1=C(C)N=c2sc(=Cc3cc(Cl)ccc3O)c(=O)n2C1c1ccc2c(c1)OCO2 (stereo not given) — lower, 2.11%
- CCCN(C(=O)c1ccccc1C)c1nnc(-c2ccccc2C)s1 — higher, 4.39%
- Cc1nc2ccc(-c3ccc(OC(F)(F)F)cc3)cc2c(O)c1C#N — lower, 1.82%
- COc1cc(Cc2cnc(N)nc2N)cc(OCCCCCC(=O)O)c1OC — lower, -0%
- COc1ccccc1-n1ccnc1SCC(=O)Nc1cccc(C(F)(F)F)c1 — higher, 5.93%
- O=C(Nc1ccc(-c2ccc(-c3nc4ccccc4[nH]3)s2)cc1)Nc1ccc(F)c(F)c1F — higher, 2.91%
- CC(=O)Nc1ccc(C(=O)NC2CCN(c3ccnc4cc(Cl)ccc34)C2)cc1 (stereo not given) — lower, -0%
- Cc1c(Cc2ccc(C(C)C)cc2)cnc2nc(N)nc(N)c12 — lower, 1.55%
- N#Cc1cc(C(=O)c2cc(Br)ccc2O)cn(-c2cc(Cl)cc(Cl)c2)c1=O — higher, 20.6%
